Measurements taken from PubChem BioAssay AID1508642 (National Center for Advancing Translational Sciences (NCATS), 2021).
The whole screen tested about 43,000 compounds, of which about 200 (0.47%) were called active. Roughly 12% stayed inconclusive and do not appear here. The call rests on the fitted dose curve; in most records, active means well fitted cell-killing curve with a large enough effect; inconclusive means small, poorly fitted or top-dose-only effect, or effect the other way; inactive means flat fitted curve, though single readings scatter. Some of the results follow.

experiment: Cell viability qHTS assay in S16 Pmp22-F2sN cells; settings: S16 Pmp22-F2sN Schwann cells viability, CellTiter-Glo, 24 h; series mostly up to 57.5 µM; activity change, negative = cytotoxicity: at the top concentration; further: nearly all actives have a fitted effect of over 65% in size
Procedure, shortened: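 Used to flag compounds lowering reporter output through toxicity, this quantitative HTS measures ATP-based CellTiter-Glo luminescence in S16 Pmp22-F2sN Schwann cells after 24 h compound exposure at 37C.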
On the % scale 0 is the no-effect control and ±100 the full control effect.

SMILES	activity change, negative = cytotoxicity
CC(NC(=O)CSc1n[nH]c(-c2ccccc2Cl)n1)c1nc2ccccc2n1C (stereo not given)	inactive: 3.82%
Cc1c(Cl)cccc1NC(=O)CC(c1cccs1)N1Cc2ccccc2C1=O (stereo not given)	inactive: -17.7%
Cc1c(C(=O)Nc2ccc(F)c(F)c2)oc2ccc(S(=O)(=O)N3CCCCC3)cc12	inactive: -16.2%
COc1ccc(N2CCN(C(=O)CCc3c(C)nc4c(-c5ccccc5)c(C)nn4c3C)CC2)cc1	inactive: -0.203%
COc1ccccc1CNC(=O)CCCCn1c(=O)c2ccccc2n(Cc2c(C)cc(C)cc2C)c1=O	inactive: -9.29%
CN(CC(=O)Nc1cccc(Cl)c1)S(=O)(=O)c1ccc2[nH]c3c(c2c1)CCCC3	inactive: 16.5%
COc1ccc2c(c1)cc(CNc1ccc(OC)c(OC)c1)c(=O)n2CC(=O)Nc1ccc(F)cc1	inactive: 12%
COc1ccc(CCNC(=O)c2ccc3c(c2)N(Cc2ccc(C)cc2)CCS3)cc1OC	inactive: -26%
CC1=C(C(N)=O)C(c2ccc(C(C)C)cc2)n2nc(SCc3ccccc3)nc2N1 (stereo not given)	inactive: -3.91%
Cc1cc(C)n2nc(SCC(=O)Nc3cc(Cl)ccc3C)nc2n1	inactive: 1.41%
CCOc1ccc(S(=O)(=O)N(CC(=O)Nc2cccnc2)c2ccccc2)cc1	inactive: 4.16%
CC(C)(C)c1ccc(-c2nc3cc(NC(=O)c4cc5ccccc5o4)ccc3o2)cc1	inactive: 2.96%
COc1ccc(CNC(=O)CCc2cn(Cc3cc(C)ccc3C)c3ccccc23)cc1OC	inactive: 8.28%
O=c1cc(-c2ccccc2)nc(SCc2nc(-c3ccc(C(F)(F)F)cc3)no2)[nH]1	inactive: 3.41%
CC(C)c1ccc(NC(=O)C2CCN(S(=O)(=O)c3cccc4nsnc34)CC2)cc1	inactive: 18.6%
O=C(Cn1ccn(-c2cccc(Cl)c2)c(=O)c1=O)NCCc1ccccc1	inactive: 0.0885%
Cc1c(C(=O)Nc2nc(-c3ccc(F)cc3)ns2)oc2ccc(Br)cc12	inactive: 11.5%
COc1ccc(NC(=O)NC2COc3ccccc3C2)c(OC)c1 (stereo not given)	inactive: 12.5%
CC1CCN(c2nnc(-n3cccc3CNc3cccc(F)c3)s2)CC1	inactive: -4.38%
CCOc1ccc(-n2cc(C(=O)Nc3ccccc3OCC)c3cc(OC)c(OC)cc3c2=O)cc1	inactive: -1.91%
COc1cc2ccccc2cc1C(=O)N1CCN(c2nc3c(C)cc(C)cc3s2)CC1	inactive: 6.75%
O=C(C1CCC1)N1CCc2cc(S(=O)(=O)N3CCN(c4ccccc4)CC3)ccc21	inactive: 1.56%
CC1CCN(C(=O)Cn2cc(SCc3cccc(F)c3)c3ccccc32)CC1	inactive: -18.2%
CCOC(=O)c1c(NC(=O)CS(=O)(=O)c2ccc(C)cc2)sc2c1CCC(C)C2 (stereo not given)	inactive: 2.03%

SMILES	activity change, negative = cytotoxicity
CCc1ccccc1NC(=O)N1CCN(c2nnc(C)c3c(C)n(-c4ccccc4)nc23)CC1	inactive: 3.02%
Cc1ccc2nc(-c3ccccc3O)c(Nc3ccccc3C)n2c1	inactive: 0.993%
CCC(C)NC(=O)Cn1c(=O)n(CC2CCC(C(=O)NC)CC2)c(=O)c2sccc21 (stereo not given)	inactive: -0.223%
CC1CCN(C(=O)Cn2cc(SCc3ccccc3)c3ccccc32)CC1	inactive: -19.7%
CC(C)c1ccc(NC(=O)c2ccc(F)c(S(=O)(=O)N3CCCC3)c2)cc1	inactive: 15.5%
O=C(COc1ccccc1F)Nc1ccccc1OCc1cc(=O)n2ccccc2n1	inactive: 5.33%
CCCc1nnc(N2C(=O)c3oc4ccc(F)cc4c(=O)c3C2c2ccc(C(=O)OC)cc2)s1 (stereo not given)	inactive: 5.07%
COc1ccccc1OCC(=O)Nc1nnc2n1CCS2	inactive: 11.5%
COc1ccc(-n2c(=O)c3ccccc3n(CC(=O)NCCc3ccccc3)c2=O)c(OC)c1	inactive: -11.4%
Cc1ccc(NC(=O)CCc2c(C)nc3c(-c4ccccc4)c(C)nn3c2C)c(C)c1	inactive: 10.3%
CC1CCN(S(=O)(=O)c2cn(CC(=O)Nc3ccc(F)c(Cl)c3)c(=O)c3ccccc23)CC1	inactive: -28%
Cc1cccc(-n2cc(-c3ccccc3)c3c(NC(C)C)ncnc32)c1	inactive: -16.6%
COc1ccc2c(c1)CCc1sc(NC(=O)c3ccc(Cl)cc3)nc1-2	inactive: -20.7%
CCC1=Nc2cc(C(=O)NC(C)c3ccccc3)ccc2Sc2ccc(Cl)cc21 (stereo not given)	inactive: -4.43%
COCCCNC(=O)CN1C(=O)COc2ccc(S(=O)(=O)N3CCCCCC3)cc21	inactive: 22.2%
COC(=O)c1ccccc1NC(=O)CN(c1ccccc1OC)S(C)(=O)=O	inactive: 1.49%
Cc1ccc(NC(=O)CSc2nc(-c3ccc(F)cc3)nc3c2Cc2c(CO)cnc(C)c2O3)cc1C	inactive: -0.181%
CN(Cc1ccccc1)C(=O)CCS(=O)(=O)c1cc(Br)cc2c1N(C(=O)C1CC1)CC2	inactive: 5.02%
O=C(CSc1nccn1-c1cccc(Cl)c1)Nc1cccc(C(F)(F)F)c1	inactive: -0.672%
O=C(COc1ccc(Cl)cc1)Nc1sc2c(c1C(=O)Nc1cccc(Cl)c1)CCCC2	inactive: 5.37%
Cc1cccc(C)c1-n1ncc(C(=O)NCc2ccc3c(c2)OCO3)c1C1CCN(C(=O)OC(C)(C)C)CC1	inactive: 20.2%
CCc1ccc(OCC(=O)N(Cc2ccc(C)cc2)Cc2ccco2)cc1	inactive: 7.58%
Cc1cccc(OCC(=O)Nc2nonc2-c2ccc(Br)cc2)c1C	inactive: -2.27%
O=C(Nc1ccc(OC(F)(F)F)cc1)C1CCCN(S(=O)(=O)c2cccc3nonc23)C1 (stereo not given)	inactive: 14%

SMILES	activity change, negative = cytotoxicity
CC(=O)N1c2ccc(S(=O)(=O)NCC3CCC(C(=O)Nc4ccccc4C)CC3)cc2CC1C (stereo not given)	inactive: -8.45%
CCCCN(C)CCCNC(=O)c1cc(=O)[nH]c2ccc(S(=O)(=O)N3CCCCC3)cc12	inactive: -4.29%
CCNc1ccc(-c2nc(-c3ccncc3)no2)cc1[N+](=O)[O-]	inactive: -2.54%
COc1ccc(C(=O)NCCn2cc(SCC(=O)Nc3ccc(F)cc3)c3ccccc32)cc1	inactive: -3.01%
COc1cc(NC(=O)Cn2cnc3sc(C)c(S(=O)(=O)N4CCC(C)CC4)c3c2=O)cc(OC)c1OC	inactive: 1.01%
Cc1ccc2c(=O)c(C(=O)c3ccccc3)cn(CC(=O)Nc3ccccc3C)c2n1	inactive: -2.19%
Cc1nc(-c2ccc(S(=O)(=O)NCc3ccc(OC(C)C)cc3)cc2)co1	inactive: -1.7%
O=C(COc1ccccc1F)Nc1ccc2nc(SCC(=O)N3CCCC3)sc2c1	inactive: 1.46%
CCn1cc(C(=O)NCCc2ccc(Cl)cc2)c(=O)c2cc(S(=O)(=O)N3CCCCCC3)ccc21	inactive: 12.8%
Cc1nn(CCCC(=O)Nc2cccc(C(F)(F)F)c2)c(=O)c2nn(-c3ccccc3)c(C)c12	inactive: 16.8%
Cc1ccc(Cn2c(CNC(=O)Cc3cccc([N+](=O)[O-])c3)nc3cccnc32)cc1	inactive: -5.32%
O=c1c2ccccc2n(Cc2c(F)cccc2Cl)c(=O)n1Cc1ccccc1	inactive: -12.3%
COCc1nc2ccccc2n1Cc1cccc(C)c1	inactive: 14.8%
CCn1c(=N)c(C(=O)NCC2CCCO2)cc2c(=O)n3cc(C)ccc3nc21 (stereo not given)	inactive: 14.6%
CCc1ccccc1NC(=O)CN1C(=O)c2cccnc2Sc2ccccc21	inactive: 9.91%
CCn1c(=O)c2sccc2n2c(CCC(=O)Nc3ccc(OC)cc3OC)nnc12	inactive: 2.52%
CCCCOc1ccc(CNC(=O)C2CCCN(c3nnc(-n4c(C)ccc4C)s3)C2)cc1 (stereo not given)	inactive: -7.54%
Cc1ccc(S(=O)(=O)N2CCN(Cc3ccc4c(c3)OCO4)CC2)cc1	inactive: 5.51%
CCc1ccc(-c2cc(C)no2)cc1S(=O)(=O)Nc1cc(OC)c(OC)c(OC)c1	inactive: -11.7%
COc1ccc(C2=C(C)C(=NCc3ccc(OC(C)C)cc3)NS2(=O)=O)cc1	inactive: 1.71%
Cc1ccc2c(c1)sc1nc(=O)n(-c3ccc(Cl)c(Cl)c3)c(=O)n12	inactive: 9.04%
O=C(CSc1nc2ccccc2nc1Cc1ccccc1F)Nc1cccc(C(F)(F)F)c1	inactive: 4.41%
COc1ccc(-c2onc(C)c2C)cc1S(=O)(=O)Nc1cc(Cl)ccc1C	inactive: -17.2%
Cc1ccc(NC(=O)Cn2c(=O)oc3cc(S(=O)(=O)N4CCCCC4)ccc32)c(C)c1	inactive: -16.5%

SMILES	activity change, negative = cytotoxicity
CCC(=O)Nc1ccc(CC)cc1-c1nc2ccccc2n(CC(=O)Nc2ccccc2C)c1=O	inactive: 11%
CCN(CC)c1ccc(NC(=O)CCS(=O)(=O)c2ccc3c(c2)oc(=O)n3C)c(C)c1	inactive: 2.91%
COC(=O)c1ccccc1NC(=O)c1cc(CN2CCOCC2)on1	inactive: 6.89%
CCc1cccc(C)c1Nc1c(-c2cccs2)nc2nc(C)cc(C)n12	inactive: 7.84%
COc1cc(C(=O)Nc2ccc(-c3nc4ccccc4o3)c(O)c2)cc(OC)c1OC	inactive: 16%
Cc1cn2c(=O)cc(COC(=O)c3ccc(NC(=O)COc4ccc(C)c(C)c4)cc3)nc2s1	inactive: 5.39%
CCc1ccccc1NC(=O)CSc1nnc(COc2ccccc2Cl)o1	inactive: 13.4%
CCOc1ccc(-c2cc(C(=O)NCCCOC)c3c(-c4ccc(CC)cc4)[nH]nc3n2)cc1	inactive: 28.9%
COc1cc2c(cc1OC)C(COc1ccc(F)cc1)N(C(=O)Cc1ccccc1)CC2 (stereo not given)	inactive: 3.28%
CC(C)OCCCn1c(=O)c2ccccc2n2c(-c3cc(Cl)ccc3O)nnc12	inactive: -1.26%
CCOc1ccccc1NC(=O)N1CCc2c(sc3c2CCCC3)C1c1ccccc1 (stereo not given)	inactive: 0.519%
CCOc1ccccc1C(=O)N1CC(=O)Nc2ccc(C)cc2C1c1ccccc1 (stereo not given)	inactive: 3.2%
COc1ccc(NC(=O)Nc2cc(-c3cn4cccnc4n3)ccc2OC)cc1	inactive: 20.2%
Brc1ccc2c(c1)NC(c1cccnc1)=NC(c1ccccc1)=N2	inactive: 11.2%
Cc1nn2c(=O)cc(COc3ccc(/C=C(\C#N)C(=O)Nc4ccccc4)cc3Cl)nc2s1	inactive: 10.9%
O=C(OCc1ccccc1Cl)c1ccc(-c2nnn(Cc3ccc(F)cc3)n2)cc1	inactive: -0.124%
O=c1cc(-c2ccccc2)n2c(SCc3ccc(Br)cc3)nnc2[nH]1	inactive: -1.5%
CCOc1ccccc1NC(=O)CSC1=Nc2ccccc2C2=NC(CC(=O)NCc3ccc4c(c3)OCO4)C(=O)N12 (stereo not given)	inactive: 2.62%
Cc1nn(CC(=O)NCCc2ccccc2)c(=O)c2c1sc1ccccc12	inactive: -14.3%
CC(=O)N1c2ccc(S(=O)(=O)N(C)CC(=O)N(Cc3ccccc3)C(C)C)cc2CC1C (stereo not given)	inactive: -0.37%
CC(C)(C)c1ccc(C(=O)N2CCN(CCc3ccccn3)CC2)cc1	inactive: 3.62%
O=C(Cc1ccccc1)Nc1nnc2n1CCS2	inactive: -3.15%
CCN(Cc1ccccc1)Cc1c(O)ccc2oc(C)c(C(=O)Nc3ccccc3C)c12	inactive: -17.4%
